For this test, the target named is T1, human B7-H3 (MS1 B7-H3+ / MS1hB7-H3 cells) (Homo sapiens, UniProt Q5ZPR3).
T1 construct: expressed in transfected cells; host or cells: MS1 (MILE SVEN 1) mouse vascular endothelial cells, ATCC CRL2279
T1 sequence (Q5ZPR3 29-534): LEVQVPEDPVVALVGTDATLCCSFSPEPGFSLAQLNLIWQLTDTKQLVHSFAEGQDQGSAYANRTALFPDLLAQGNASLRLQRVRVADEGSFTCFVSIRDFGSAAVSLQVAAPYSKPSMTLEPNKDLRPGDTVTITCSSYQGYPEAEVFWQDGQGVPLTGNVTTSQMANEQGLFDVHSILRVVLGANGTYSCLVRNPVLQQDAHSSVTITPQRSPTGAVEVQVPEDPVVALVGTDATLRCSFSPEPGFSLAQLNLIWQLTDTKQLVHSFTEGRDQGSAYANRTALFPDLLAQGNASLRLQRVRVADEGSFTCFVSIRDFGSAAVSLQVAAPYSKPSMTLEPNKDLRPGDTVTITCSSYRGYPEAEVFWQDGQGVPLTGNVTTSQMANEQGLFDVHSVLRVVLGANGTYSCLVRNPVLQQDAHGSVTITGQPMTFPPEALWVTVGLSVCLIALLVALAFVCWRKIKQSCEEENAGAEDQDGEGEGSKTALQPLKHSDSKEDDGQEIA
In words: Flow chamber cell attachment assay under flow shear stress, MS1 cells expressing human B7-H3. The test is classed as cell-based. The protocol: Binding specificity of MB-B7-H3-affibody to the target B7-H3 was also assessed in cell culture experiments under flow shear stress conditions simulating flow in blood capillaries by using a parallel flow chamber experimental set-up (see FIG. 4). MS1 B7-H3+ cells between passages 2 and 4 were used in all experiments. Before flow chamber experiment, FACS analysis was performed in order to confirm B7-H3 expression of MS1 B7-H3+ cells. The geometric mean fluorescence intensity was determined using FlowJo software. MS1 B7-H3+ cells were grown on coated (Sigmacote; Sigma, St Louis, Mo) neutral-charged glass microscope slides (VWR, USA) for 24 hours and mounted on a parallel plate flow chamber (GlycoTech, Rockville, Md). A syringe infusion and withdrawal pump (Genie Plus; Kent Scientific, Torrington, Conn) was used to maintain the flow rate of 0.6 mL/min, corresponding to a wall shear stress rate of 100 sec-1, similar to that in tumor capillaries. The glass microscope slides were inverted and positioned in the parallel flow chamber apparatus in order to allow microbubbles to float and then bind to B7-H3-expressing cells. In brief, solutions were passed over cells in the following order; PBS for 2 minutes; 5×10^7 of either MB-B7-H3-affibody, MB-anti-B7-H3-antibody, or MB-Non-targeted in PBS for 4 minutes; and finally washing with PBS for 2 minutes. The adhered microbubble number on the MS1 B7-H3+ cells monolayer was quantified manually by counting attached microbubbles on MS1 B7-H3+ cells with a phase-contrast bright-field microscope (Axiovert 25; Carl Zeiss, Thornwood, NY; original magnification, ×100) to assess the number of attached microbubbles per cell. At least five random fields of view of these slides were immediately imaged. Note that microbubbles can be visualized as small, rounded particles (yellow arrow) and were considered to be attached to MS1 B7-H3+ cells when there was direct contact with the cells without free floating. The flow chamber cell attachment study confirmed high binding specificity of MB-B7-H3-affibody to MS1 B7-H3+ cells.
Flow chamber cell attachment assay. Binding specificity of MBABY-B7-H3 and MBAb-B7-H3 to the target B7-H3 was first assessed in cell culture experiments under flow shear stress conditions simulating flow in blood capillaries by using a flow chamber experimental set-up. Please see Supplementary Methods for more details.
ABYB7-H3 coated microbubbles (MBABY-B7-H3) attach to B7-H3 expressed on endothelial cells. To mimic the in vivo shear stress that would occur on bound MB by blood flow in the capillaries, an in vitro flow chamber cell attachment assay of MB using MS1hB7-H3 cells was performed (FIG. 11A). Biotinylated ABY was conjugated to streptavidin MB (MBABY-B7-H3). […]

B1: MBABY-B7-H3: contrast microbubbles functionalized with ABYB7-H3 (biotinylated ABY on streptavidin-coated, lipid-shelled perfluorocarbon MB) (conjugate)
chain: AEAKYAKEKIFAVGEIYWLPNLTHGQIMAFIAALNDDPSQSSELLSEAKKLNDSQAPKHHHHHH
As to B1, for the setting “Example 1, 5×10^7 MB, flow rate 0.6 mL/min, wall shear stress rate 100 sec-1”, the “average number of microbubbles attached per MS1 B7-H3+ cell” value came out at 8.52±1.42 MB/cell. Also, the “MB attachment to MS1hB7-H3 cells after receptor blocking” value (Example 3, cells incubated with free ABYB7-H3 (5 μg/mL) prior to assay) amounted to 10.9±2.9 MB/cell. Moreover, for the setting “Example 3, flow shear stress conditions”, the “number of MB attached to MS1hB7-H3 cells” value is reported as 8.5±1.4 MB/cell. For the same molecule, the “MB attachment to MS1hB7-H3 cells without blocking” value (Example 3, non-blocking group of the blocking study) worked out at 26.3±4.4 MB/cell.

The values are drawn from patent publication US12274759B2, “Affibody proteins specific for B7-H3 (CD276)” (THE BOARD OF TRUSTEES OF THE LELAND STANFORD JUNIOR …, priority 2018, dated 2025).
